Consider 89 compounds from article PMC4336329 (PLoS ONE, 2015).

About 2,200 (0.71%) of roughly 310,000 compounds showed an effect of 50% or more. The effect is printed as a negative number. The list shows a part of the results.

For the assay, the target named is human ether-à-go-go-related gene (hERG) potassium channel (human, UniProt Q12809). The assay is described as follows: primary screen, population patch clamp on CHO cells stably expressing hERG.
Chain of human ether-à-go-go-related gene (hERG) potassium channel (Q12809 whole entry, looked up): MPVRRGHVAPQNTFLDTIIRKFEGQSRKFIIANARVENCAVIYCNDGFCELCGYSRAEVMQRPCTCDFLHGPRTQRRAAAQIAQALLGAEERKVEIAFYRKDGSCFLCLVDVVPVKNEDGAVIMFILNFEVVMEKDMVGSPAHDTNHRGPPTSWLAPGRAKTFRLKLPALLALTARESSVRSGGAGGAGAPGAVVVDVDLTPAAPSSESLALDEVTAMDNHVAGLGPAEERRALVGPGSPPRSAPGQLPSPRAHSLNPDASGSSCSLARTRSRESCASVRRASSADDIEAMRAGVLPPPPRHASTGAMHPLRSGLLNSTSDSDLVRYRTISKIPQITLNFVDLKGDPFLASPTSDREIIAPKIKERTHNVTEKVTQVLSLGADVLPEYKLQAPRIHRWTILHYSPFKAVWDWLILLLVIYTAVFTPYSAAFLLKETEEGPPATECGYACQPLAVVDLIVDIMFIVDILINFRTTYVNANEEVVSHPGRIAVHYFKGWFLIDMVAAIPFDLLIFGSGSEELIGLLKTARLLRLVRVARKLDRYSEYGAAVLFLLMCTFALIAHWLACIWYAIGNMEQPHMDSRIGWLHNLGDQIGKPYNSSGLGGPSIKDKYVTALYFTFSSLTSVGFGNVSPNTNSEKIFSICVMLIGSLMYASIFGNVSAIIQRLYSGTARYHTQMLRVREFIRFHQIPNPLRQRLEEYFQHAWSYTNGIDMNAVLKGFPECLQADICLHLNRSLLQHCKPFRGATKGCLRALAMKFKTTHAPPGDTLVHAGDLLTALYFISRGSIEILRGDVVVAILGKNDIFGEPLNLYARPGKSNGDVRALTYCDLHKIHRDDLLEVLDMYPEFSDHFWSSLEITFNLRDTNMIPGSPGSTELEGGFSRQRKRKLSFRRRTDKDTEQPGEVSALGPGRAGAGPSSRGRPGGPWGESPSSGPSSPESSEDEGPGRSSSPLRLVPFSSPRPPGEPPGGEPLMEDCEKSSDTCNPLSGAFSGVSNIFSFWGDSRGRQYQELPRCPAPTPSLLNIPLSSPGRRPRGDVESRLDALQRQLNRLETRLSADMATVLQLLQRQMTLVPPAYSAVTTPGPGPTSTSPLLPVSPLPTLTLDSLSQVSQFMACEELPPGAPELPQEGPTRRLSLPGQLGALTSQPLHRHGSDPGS
Take `CCOc1ccc(-n2nc3cc(C)c(N)cc3n2)cc1`: the “hERG current change (%, negative = inhibition) at 1uM” value is 15.5%. For `O=C(NCCCN1CCOCC1)/C(=C/c1ccco1)NC(=O)c1ccccc1`, the “hERG current change (%, negative = inhibition) at 1uM” value is 22.9%. In the case of `COc1ccc(CNC(=O)N2CCN(c3ccc(F)cc3)CC2)cc1` it was 3.39%; in that of `CCN1CCN(C(=O)CN(c2cc(OC)ccc2OC)S(C)(=O)=O)CC1`, 12.3%. Turning to `CCOc1nc(N(C)C)nc(-n2nnc(C(C)=O)c2C)n1`, the “hERG current change (%, negative = inhibition) at 1uM” value is given as 12.3%. Under `COc1cc(/C=N/NC(N)=O)cc(Br)c1OCc1ccccc1C` stands 12.8%. In the case of `Cc1cc(C(=O)N/N=C/c2cccnc2)c(C)o1` it was 9.96%.

Consider `O=C(Nc1ccccc1C(=O)Nc1ccccn1)c1ccccc1F`, for which the “hERG current change (%, negative = inhibition) at 1uM” value stood at 11.2%. In the case of `CCC1CCCCN1Cc1c(O)ccc2c(=O)c(-c3ccccc3OC)coc12` (centres unmarked), the “hERG current change (%, negative = inhibition) at 1uM” value is 7.86%. Take `Cl.NC1C=CC=C(C(=O)O)C1` (centres unmarked): the “hERG current change (%, negative = inhibition) at 1uM” value was determined as 7.13%.

For the compound `CC(C)(C)NC(=O)/C(=C/c1ccccc1F)NC(=O)c1ccc([N+](=O)[O-])cc1`, the “hERG current change (%, negative = inhibition) at 1uM” value is reported as 14%.

Turning to `COc1ccc2cc(C)c3nnc(SCC(=O)Nc4cc(OC)c(OC)cc4C(=O)O)n3c2c1`, the “hERG current change (%, negative = inhibition) at 1uM” value turned out to be 14.5%. In the case of `COCCNC(=O)c1c[nH]c2ccc(S(=O)(=O)Nc3ccc(F)cc3F)cc2c1=O` it was 14.8%.

Regarding `Cc1[nH]c2ccccc2c(=O)c1SC(F)(F)C(F)C(F)(F)F` (centres unmarked), the “hERG current change (%, negative = inhibition) at 1uM” value is 6.17%. Under `COc1ccc(NC(=O)Cn2nnc(C(=O)NCCc3ccccc3)c2N)c(OC)c1` stands 8.43%; under `C=CCN1C(=O)NC(=O)/C(=C/c2ccc(N(C)C)c(Br)c2)C1=O`, 12.1%; under `Cc1nc2ccccc2nc1SCC(=O)c1ccccc1`, 21%.

As for `COc1ccc(OC2C(=O)N(Cc3ccc(F)cc3)C2c2ccc(OC)c(OC)c2)cc1` (centres unmarked), the “hERG current change (%, negative = inhibition) at 1uM” value came to 7.28%. Under `CC1(C)CC(=O)C2=C(C1)Nc1ccccc1N=C2.Cl` stands -16.2%; under `COc1ccccc1OCCn1cc(/C=C(\C#N)C(=O)NCc2ccco2)c2ccccc21`, 8.39%; under `CN(Cc1ccccc1)C(=O)COC(=O)c1cc(Cl)nc(Cl)c1`, 11.7%. In the case of `CN(CC(=O)Nc1ccccc1Cl)C(=O)COC(=O)c1ccc(C(F)(F)F)cc1`, the “hERG current change (%, negative = inhibition) at 1uM” value is 5.83%. In the case of `CCOc1ccc(-c2nc(C#N)c(N3CCN(Cc4ccccc4)CC3)o2)cc1` it was 14.5%; in that of `CCN(CC)CCOc1nnc(-c2ccc(OC)cc2)c2ccccc12`, -25.1%. Under `O=[N+]([O-])c1ccccc1/C=C/C=N/n1c(-c2ccccc2)n[nH]c1=S` stands 12.9%. Under `COc1ccc(OCC(=O)NNC(=O)c2ccc3c(=O)n4c(nc3c2)CCC4)cc1` stands 13.7%; under `O=C(CCC(=O)NCc1ccccc1)NCc1ccccc1`, 13%. `COc1cc(NC(=O)COc2ccc(C)c(C)c2)ccc1NC(=O)c1ccco1`: the “hERG current change (%, negative = inhibition) at 1uM” value is given as 6.13%.

As for `Cn1c(CCn2ccccc2=O)nc2cc(NC(=O)COc3ccccc3)ccc21`, the “hERG current change (%, negative = inhibition) at 1uM” value is given as -6.23%. Under `Cc1ccccc1N1C(=O)C2ON(c3ccccc3)C(c3ccco3)C2C1=O` (centres unmarked) stands 20.4%. `CC1CCCCC1NC(=O)c1ccc(NS(=O)(=O)c2ccc3[nH]c(=O)[nH]c3c2)cc1` (centres unmarked): the “hERG current change (%, negative = inhibition) at 1uM” value was 5.04%. Under `O=C1CCCN1CN(C(=O)c1ccc2c(c1)OCO2)c1ccc(F)cc1` stands 9.38%; under `CCOc1ccc(C(=O)Nc2cc(=O)n(C)c(=O)n2C)cc1`, 14.6%. As to `COc1ccc(N2CCN(C(=O)CCn3nnc4ccccc43)CC2)cc1`, the “hERG current change (%, negative = inhibition) at 1uM” value is 6.1%.

In the case of `Cc1cc(C)n2nc(C(=O)NCC(=O)Nc3ccc(F)c(F)c3)nc2n1`, the “hERG current change (%, negative = inhibition) at 1uM” value worked out at 9.22%.

Turning to `CCc1nn(CCCC(=O)N2CCC(C)CC2)c(=O)c2cc3occc3n12`, the “hERG current change (%, negative = inhibition) at 1uM” value came to 9.11%. Under `Cc1ccsc1C(=O)Nc1cccc(S(=O)(=O)N(C)C)c1` stands -2.19%. In the case of `Cn1c(=O)cc(SCC(=O)N2CCN(C(=O)c3ccco3)CC2)c2ccccc21` it was 12.6%; in that of `Cc1ccc(N(CC(=O)NC2CCCCC2)C(=O)CNC(=O)c2cccs2)cc1`, 8.05%; in that of `CCOc1ccc2ccccc2c1C(=O)N1CCN(c2ccccc2)CC1`, -7.74%. In the case of `O=C1N=c2ccccc2=C1c1sc(=O)[nH]c1O` it was 15%; in that of `Cn1cc(Br)c(C(=O)n2cc(Br)cn2)n1`, 11.5%. Turning to `CCOCCn1c(COc2ccc(C)cc2)nc2ccccc21`, the “hERG current change (%, negative = inhibition) at 1uM” value is -16.9%. Under `CC(=O)Nc1ccc(NC(=O)CSc2nnc(COc3ccccc3C)n2CC2CCCO2)cc1` (centres unmarked) stands 8.16%. In the case of `CCn1c(O)c(N=NC(=O)c2cccs2)c2ccccc21` it was 16.6%; in that of `O=C(O)CC(c1ccccc1)N1C(=O)c2ccccc2C1=O` (centres unmarked), 9.6%; in that of `COC(=O)c1sccc1NC(=O)c1cc(C)on1`, 1.8%.

Consider `Cc1c(CN2CCC(CO)(CCOc3ccccc3)CC2)c(=O)n(-c2ccccc2)n1C`, for which the “hERG current change (%, negative = inhibition) at 1uM” value came out at 10.5%.

For the compound `O=[N+]([O-])c1cccc(S(=O)(=O)c2ccc(NCCO)c([N+](=O)[O-])c2)c1`, the “hERG current change (%, negative = inhibition) at 1uM” value is reported as -4.72%. With `Cc1cc(C)c(S(=O)(=O)n2c([N+](=O)[O-])cnc2C)c(C)c1`, the “hERG current change (%, negative = inhibition) at 1uM” value was 20.1%. Under `COC(=O)c1c(C)[nH]c(C(=O)CN2C(=O)NC3(CCOc4ccccc43)C2=O)c1C` (centres unmarked) stands 11.6%. In the case of `CCOC(=O)C1(CC)NC(c2ccco2)C2C(=O)N(C)C(=O)C21` (centres unmarked) it was 16.6%.

Consider `CCc1ccc(OCC(=O)N/N=C(\C)c2ccc(OC(F)F)cc2)cc1`, for which the “hERG current change (%, negative = inhibition) at 1uM” value was determined as 7.77%.

Regarding `CCCC(=O)Nc1ccc(S(=O)(=O)Nc2cc(C)nc(C)n2)cc1`, the “hERG current change (%, negative = inhibition) at 1uM” value turned out to be 4.18%. As to `O=C(NN1C(=O)C2C(C1=O)C1C=CC2C12CC2)c1ccccc1Cl` (centres unmarked), the “hERG current change (%, negative = inhibition) at 1uM” value is given as 13.4%. Under `Cc1ccc2c(C(=O)CN3CC(C)CC(C)C3)c(C)[nH]c2c1` (centres unmarked) stands -8.38%; under `COc1cc(OC)cc(C(=O)NCC(=O)OCC(=O)c2cc(C)n(Cc3ccco3)c2C)c1`, 6.92%; under `CCOc1ccccc1CNC(=O)CCCc1cn(C)c2ccccc12`, 18.4%. Under `CCn1c(-c2ccccc2O)n[nH]c1=S` stands 19.6%; under `O=c1oc(-c2ccc([N+](=O)[O-])cc2)nc2ccccc12`, 9.11%; under `CCOC(=O)NC1(NC2CCCCC2)Oc2ccccc2O1`, 9.56%. Under `CCOC(=O)CNC(=O)N1CCCC(CNS(=O)(=O)Cc2ccccc2)C1` (centres unmarked) stands 5.98%; under `COc1cccc2[nH]c(C(=O)NCC3CCCO3)cc12` (centres unmarked), 12.5%; under `COc1nc(N(C)C)nc(N(C#N)S(=O)(=O)c2ccc(C)cc2)n1`, 13.4%.

For `Cc1ccc(C)c(S(=O)(=O)N2CCCC2CNC(=O)C(=O)NCc2ccccn2)c1` (centres unmarked), the “hERG current change (%, negative = inhibition) at 1uM” value is listed as 3.03%. Under `CN1CSC(=S)N(C)C1` stands 10.9%. Regarding `CCOc1ccc(N/C(N)=N/c2nc(CSc3nnnn3-c3ccccc3)cc(=O)[nH]2)cc1`, the “hERG current change (%, negative = inhibition) at 1uM” value is reported as -7.73%.

With `Cc1ccc(SCCSc2ncccn2)cc1`, the “hERG current change (%, negative = inhibition) at 1uM” value was 19.1%. Under `O=C(COC(=O)CNC(=O)C12CC3CC(CC(C3)C1)C2)NC1CCS(=O)(=O)C1` (centres unmarked) stands 7.84%; under `O=C(CN1CCN(c2ccccc2)CC1)Nc1ccc2c(c1)CCC2`, 9.04%; under `COc1cccc(CN(C)C(=O)c2cc(COc3ccc(-n4cncn4)cc3)on2)c1`, -29.2%. In the case of `CCCc1nc2ccccc2c(=O)n1/N=C/c1ccccc1O` it was 12.9%; in that of `Cc1ccc(SCCSc2nc(C)cc(=O)[nH]2)cc1`, 14.5%.

As to `COc1cc(OC)cc(C(=O)N2CCN(Cc3ccccc3C(F)(F)F)CC2)c1`, the “hERG current change (%, negative = inhibition) at 1uM” value was -2.54%. Under `Brc1cnc2nc(SC/C=C/c3ccccc3)[nH]c2c1` stands 5.97%; under `CCOc1ccccc1C(=O)N(Cc1sccc1C)C1CCS(=O)(=O)C1` (centres unmarked), -2.97%.

For the compound `O=C(NCc1cccc(Cl)c1)c1cccc(S(=O)(=O)N2CCCCC2)c1`, the “hERG current change (%, negative = inhibition) at 1uM” value is 12.6%. Under `Cc1cc(S(=O)(=O)N2CCCC(C(=O)Nc3ccc(C(=O)O)cc3)C2)ccc1Cl` (centres unmarked) stands 10.7%; under `Cc1cc(C)n(-c2ccn(Cc3ccc(Cl)cc3Cl)c(=O)n2)n1`, 6.63%; under `CCC(C)Nc1nc(-c2c[nH]c3ccccc23)cs1` (centres unmarked), 10.7%.

As to `CN(Cc1nc(-c2cccs2)no1)CC1(N2CCOCC2)CCCCC1`, the “hERG current change (%, negative = inhibition) at 1uM” value was -3.92%. As for `COc1cc(N2CN=c3s/c(=C\c4ccccn4)c(=O)n3C2)cc(OC)c1OC`, the “hERG current change (%, negative = inhibition) at 1uM” value came to 6.9%.

As to `CCCN(CC(=O)Nc1ccccc1C)C(=O)CCCc1c[nH]c2ccccc12`, the “hERG current change (%, negative = inhibition) at 1uM” value came to 7.67%. Under `COc1ccccc1NS(=O)(=O)c1ccc(N/N=C/C=C/c2ccccc2[N+](=O)[O-])c([N+](=O)[O-])c1` stands 14.3%; under `CC1(C)CC(=O)C=C(c2cccc3c2oc2ccccc23)C1`, 11.8%; under `CC1(C)C(=O)Nc2ccccc2N1C(=O)COC(=O)CNS(=O)(=O)c1ccc(F)c(F)c1F`, 5.83%.

For the compound `Cc1ccc(NC2CCCN(C(=O)CCC3=NNC(=O)CC3)C2)cc1C` (centres unmarked), the “hERG current change (%, negative = inhibition) at 1uM” value worked out at 19.7%. Under `C=CCN(C(=O)CCC(=O)Nc1cc(C)on1)C(C(=O)NC(C)(C)C)c1cccc(OC)c1OC` (centres unmarked) stands 13.3%. Under `Cc1ccsc1/C=C(\C#N)C(=O)NCCCN1CCOCC1` stands 8.66%.
